Data reported in PMC4336329 (PLoS ONE, 2015).
In all, about 310,000 compounds went through this assay and about 2,200 (0.71%) showed an effect of 50% or more. Effects have a minus sign here. Some of the results follow.

Each molecule was assayed against human ether-à-go-go-related gene (hERG) potassium channel (human, UniProt Q12809) (assay: primary screen, population patch clamp on CHO cells stably expressing hERG).
Sequence of human ether-à-go-go-related gene (hERG) potassium channel (Q12809 whole entry, looked up): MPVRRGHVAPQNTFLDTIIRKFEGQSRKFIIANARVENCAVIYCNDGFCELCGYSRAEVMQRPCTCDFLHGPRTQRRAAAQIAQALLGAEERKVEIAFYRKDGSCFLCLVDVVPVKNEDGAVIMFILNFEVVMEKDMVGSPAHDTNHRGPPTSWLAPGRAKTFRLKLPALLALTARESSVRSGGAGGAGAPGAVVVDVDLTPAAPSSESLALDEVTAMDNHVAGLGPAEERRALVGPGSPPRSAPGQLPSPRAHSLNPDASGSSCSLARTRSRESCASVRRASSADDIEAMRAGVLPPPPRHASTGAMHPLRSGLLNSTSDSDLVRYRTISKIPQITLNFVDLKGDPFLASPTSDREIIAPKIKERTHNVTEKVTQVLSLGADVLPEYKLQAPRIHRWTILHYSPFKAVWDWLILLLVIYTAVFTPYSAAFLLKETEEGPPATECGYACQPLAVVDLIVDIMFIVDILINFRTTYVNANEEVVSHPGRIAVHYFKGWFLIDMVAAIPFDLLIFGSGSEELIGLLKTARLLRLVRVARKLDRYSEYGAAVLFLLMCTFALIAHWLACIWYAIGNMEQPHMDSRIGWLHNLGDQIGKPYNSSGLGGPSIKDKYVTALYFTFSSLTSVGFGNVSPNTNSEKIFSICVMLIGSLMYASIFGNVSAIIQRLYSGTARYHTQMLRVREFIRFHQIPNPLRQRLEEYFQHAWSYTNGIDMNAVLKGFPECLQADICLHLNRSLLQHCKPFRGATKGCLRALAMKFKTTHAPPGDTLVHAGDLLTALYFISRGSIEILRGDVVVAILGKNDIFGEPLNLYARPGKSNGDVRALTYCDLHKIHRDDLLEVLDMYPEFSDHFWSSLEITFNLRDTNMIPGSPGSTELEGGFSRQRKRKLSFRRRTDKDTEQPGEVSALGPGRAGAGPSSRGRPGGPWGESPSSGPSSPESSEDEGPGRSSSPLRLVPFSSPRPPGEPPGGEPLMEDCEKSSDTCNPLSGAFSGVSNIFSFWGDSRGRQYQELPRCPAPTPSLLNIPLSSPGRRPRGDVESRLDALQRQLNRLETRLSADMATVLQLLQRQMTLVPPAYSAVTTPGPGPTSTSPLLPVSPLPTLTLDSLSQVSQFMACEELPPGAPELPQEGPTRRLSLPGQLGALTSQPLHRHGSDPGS

Row | SMILES | hERG current change (%, negative = inhibition) at 1uM [%]
1 | COC(=O)c1nn(-c2c(C)n(C)n(-c3ccccc3)c2=O)cc1O | 6.83
2 | COc1cc(NC(=O)C2CCC(CNc3c(N4CCCCC4)c(=O)c3=O)CC2)cc(OC)c1 (centres unmarked) | 15.1
3 | COc1ccc(CCNC(=O)CCn2c(=O)oc3ccccc32)cc1 | 0.676
4 | COCCNC(=O)C(c1cccnc1)N(Cc1ccc(C)cc1)C(=O)Cn1nnc2ccccc21 (centres unmarked) | -0.938
5 | COc1ccc(-c2csc(N(CCc3ccc(OC)c(OC)c3)C(=O)COc3ccccc3)n2)cc1 | 23.4
6 | CN1CCN(C(=O)c2cc(Cl)cc(Cl)c2)CC1 | 8.2
7 | COc1ccc(N(C(=O)c2ccco2)C(C(=O)NC2CCCC2)c2ccncc2)cc1OC (centres unmarked) | 13.2
8 | Cc1ccc(/C=C\c2nccc3c2[nH]c2ccccc23)cc1 | 3.86
9 | COC(=O)C(C)(C(=O)OC)c1ccc(C(F)(F)F)cc1[N+](=O)[O-] | 14.2
10 | CCOc1ccc(CCNC(=O)CCC(=O)N2CCOc3ccc(C)cc32)cc1OCC | 5.67
11 | N#Cc1ccc(/C=N/NC(=O)CCc2ccc(S(=O)(=O)N3CCOCC3)cc2)cc1 | -5.11
12 | COCCNC(=O)CSc1nc(-c2ccccc2)cs1 | 1.28
13 | COc1cccc(C2NC(=O)NC(C)=C2C(=O)OCC2CCCO2)c1 (centres unmarked) | 11.8
14 | CC1CCC(=NNC(=O)c2ccccc2-n2cccc2)CC1 (centres unmarked) | 6.73
15 | COc1ccc(OC)c(S(=O)(=O)NCC2CCCO2)c1 (centres unmarked) | 13
16 | COC(=O)Cc1c(O)ccn(Cc2ccc3c(c2)OCO3)c1=O | 16.9
17 | CC(C)CC(=O)Nc1cc(C(F)(F)F)ccc1N1CCOCC1 | 11
18 | COc1cccc(SCc2noc(C(=O)NC(C)C)c2C(=O)O)c1 | 6.41
19 | Cc1ccc(C)c(N2CC(=O)N(c3cc(C)ccc3C)CC2=O)c1 | 15.9

Row | SMILES | hERG current change (%, negative = inhibition) at 1uM [%]
20 | Cc1ccccc1C(=O)NCCCNC(=O)c1ccccc1C | 8.34
21 | NC(=O)CSc1nnc(CNc2cccc(Cl)c2)n1CCc1ccccc1 | 3.32
22 | Cc1cc(C)cc(N(CC(=O)N2CCN(c3ccccc3)CC2)S(=O)(=O)c2c(C)noc2C)c1 | -9.61
23 | CCOC(=O)N1CCN(S(=O)(=O)c2ccc(OC)c(C(=O)N3CCCCC3)c2)CC1 | 12.8
24 | CC(C)c1ccccc1NC(=O)CCc1nc2ccccc2s1 | -9.96
25 | O=C(c1cc(COc2cccc(C(F)(F)F)c2)on1)N1CCc2ccccc2C1 | 14.5
26 | COc1cc(OC)nc(NC(=O)CS(=O)(=O)c2ccccc2)n1 | -0.298
27 | COc1ccc(CCC(C)NCc2cccc(Br)c2)cc1 (centres unmarked) | -32.1
28 | CCC(C)N(C(=O)COC(=O)COc1c(C)cc(C)cc1C)C1CCS(=O)(=O)C1 (centres unmarked) | 10.6
29 | O=C(O)C1C2CCC(O2)C1C(=O)NCc1ccncc1 (centres unmarked) | 12.5
30 | CCN1C(=O)[C@H]2[C@@H](c3ccc(C)cc3)N3C(=O)N(c4ccc(C(F)(F)F)cc4)C(=O)[C@@]3(CC)[C@H]2C1=O | 9.75
31 | Cn1cc(Cl)c(/C(N)=N/OC(=O)c2ccccc2C(F)(F)F)n1 | 8.48
32 | C=CCNC(=O)c1ccc2nc(-c3ccccc3)c(-c3ccccc3)nc2c1 | 0.892
33 | CCOC(=O)COc1c(OC)cc(Cl)cc1C1Nc2ccccc2C(=O)N1c1cccc(C)c1 (centres unmarked) | 6.03
34 | CCc1ccc(CN2CCN(C(=O)Cc3ccccc3)CC2)cc1.O=C(O)C(=O)O | 5.9
35 | COC(=O)c1ccc(COC(=O)CNC(=O)c2ccc(-c3ccccc3)cc2)cc1 | -7.46
36 | CC(C)C(=O)Nc1ccc(C(=O)NNC(=S)NC(=O)c2cccs2)cc1 | 9.5
37 | O=C(CN1C(=O)CCC1=O)NNc1ccc2ccccc2c1 | 4.69
38 | CCCc1nc(N2CCCC2)c(C#N)c2c1CCCC2 | 4.69

Row | SMILES | hERG current change (%, negative = inhibition) at 1uM [%]
39 | CC(=O)OCc1c(C(F)(F)F)nn(C)c1Sc1ccccc1 | 4.81
40 | CCOc1ccc2nc(SCC(=O)NCc3ccc(S(N)(=O)=O)cc3)[nH]c2c1 | 31.1
41 | COc1ccc(-c2csc(NC(=O)CN3C(=O)C4CCCCC4C3=O)n2)c(OC)c1 (centres unmarked) | 16.1
42 | CCn1c(Nc2ccccc2Cl)nc2ccccc21 | 9.51
43 | Cc1ccc(C(=O)Nc2cccc(NC(=O)c3ccc(C)o3)n2)o1 | -1.68
44 | O=C(Nc1ccc(C(=O)c2ccc(C(=O)O)c(C(=O)O)c2)cc1)c1ccccc1 | 16.3
45 | CCCCCNC(=O)C(C)NS(=O)(=O)c1ccc(OC)cc1 (centres unmarked) | -12.5
46 | CCOC(=O)NC(=O)C(=CNc1ccccc1C)C(=O)NC(=O)OCC | -1.35
47 | CCc1cc2c(=O)c(-c3cnn(-c4ccccc4)c3)c(C)oc2cc1OCC(=O)Nc1ccc(F)c(F)c1 | 16.2
48 | CC1CCCCN1C(=O)Cn1cc(C#N)c2ccccc21 (centres unmarked) | 12
49 | O=C(C[n+]1ccccc1)N/N=C/c1ccco1.[Cl-] | 13.6
50 | O=[N+]([O-])c1ccccc1OCCN1CCOCC1 | 6.83
51 | COc1ccccc1C(=O)N/C(=C\c1ccc(Br)cc1)C(=O)NCCO | 8.07
52 | CCOc1ccc(N2CC(O)=C(c3ccccc3)C2=N)cc1 | 10.5
53 | CCOC(=O)Cc1c(C)nc(-c2ccccc2)[nH]c1=O | 4.47
54 | CCCC(=O)Nc1cccc(NC(=O)c2ccc3c(c2)OCCO3)c1 | 12.2
55 | Clc1cccc(OCCN2CCNCC2)c1.O=C(O)C(=O)O | 8.77
56 | COc1ccc(C(C[N+](=O)[O-])c2c(-c3ccccc3)cc3ccccn23)c(OC)c1 (centres unmarked) | 0.268
